# Results from the supplement of paper PMC10037445.
# “And” between values parts separate entries of the source, which are not always exact repeats. Equal values may be shown once. ± gives the standard deviation of the averaged measurements. Over roughly 2,900 compounds, “IRF Lucia reporter activity, fold change vs agonist alone” has its median near 0.9; the highest 2% begin near 2.8. The list shows a part of the results.
# What was measured:
# RAW-Dual [1] = assay: IRF Lucia reporter activity, fold change vs agonist alone; cytotoxicity flag (confluency mask): not cytotoxic; higher = enhanced IRF activity
# Outline: (§1)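 RAW-Dual macrophages (50,000 cells/well in DMEM, 384-well plates) received 50 nL of library stock by pin tool, then a PRR agonist 1 h later, and were kept at 37 °C, 5% CO2. After 20 hours, supernatant was read for IRF by QuantiLuc luminescence and for NF-κB by QuantiBlue absorbance at 620 nm. Reporter activity is fold change over agonist-alone wells. Cytotoxic wells had IncuCyte confluency below 70% of agonist controls in both mask sets.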
# RAW-Dual [2] = assay: IRF Lucia reporter activity, fold change vs agonist alone; higher = enhanced IRF activity; conditions: cytotoxicity flag (confluency mask): not cytotoxic, agonist: MPLA (TLR4) […]
# Outline: as §1
# RAW-Dual [3] = assay: IRF Lucia reporter activity, fold change vs agonist alone; cytotoxicity flag (confluency mask): cytotoxic (confluency <70% of control); higher = enhanced IRF activity
# Outline: as §1
# [4] = agonist: 3'3'-cGAMP (STING) 10 ug/mL
# [5] = library stock concentration (final ~1000-fold dilution): 10 mM
structure (smiles),measurement,setting,value
CNC(=O)c1ccccc1Nc1cc(Nc2ccc(N3CCOCC3)cc2OC)ncc1C(F)(F)F (library stock concentration (final ~1000-fold dilution): 10 mM),IRF Lucia reporter activity,RAW-Dual [1]; [4],0.0797
same,IRF Lucia reporter activity,RAW-Dual [1]; agonist: LPS (TLR4) 0.1 ug/mL,0.307
CNC(=O)c1cc(Oc2ccc(NC(=O)Nc3ccc(Cl)c(C(F)(F)F)c3)cc2)ccn1 (library stock concentration (final ~1000-fold dilution): 10 mM),IRF Lucia reporter activity,RAW-Dual [1]; [4],0.122
same,IRF Lucia reporter activity,RAW-Dual [1]; agonist: LPS (TLR4) 0.1 ug/mL,1.47
CNC(=O)c1cc(Oc2ccc(NC(=O)Nc3ccc(Cl)c(C(F)(F)F)c3)cc2)ccn1,IRF Lucia reporter activity,RAW-Dual [2]; [5],1.21
Cc1ccc(S(=O)(=O)Cc2nc(-c3ccc(C(=O)NCc4cccnc4)cc3)oc2C)cc1 (library stock concentration (final ~1000-fold dilution): 10 mM),IRF Lucia reporter activity,RAW-Dual [1]; [4],0.831
same,IRF Lucia reporter activity,RAW-Dual [1]; agonist: LPS (TLR4) 0.1 ug/mL,0.438
Cc1ccc(S(=O)(=O)Cc2nc(-c3ccc(C(=O)NCc4cccnc4)cc3)oc2C)cc1,IRF Lucia reporter activity,RAW-Dual [2]; [5],0.649
O=C1CC(c2ccc(O)cc2)Oc2cc(O)cc(O)c21 (stereo not drawn),IRF Lucia reporter activity,RAW-Dual [2]; [5],0.931
O=C1CC(c2ccc(O)cc2)Oc2cc(O)cc(O)c21 (stereo not drawn) (library stock concentration (final ~1000-fold dilution): 10 mM),IRF Lucia reporter activity,RAW-Dual [1]; [4],0.853
same,IRF Lucia reporter activity,RAW-Dual [1]; agonist: LPS (TLR4) 0.1 ug/mL,0.848
CCn1cc(C(=O)O)c(=O)c2c(N)c(F)c(NC3CCCCC3)cc21 (library stock concentration (final ~1000-fold dilution): 10 mM),IRF Lucia reporter activity,RAW-Dual [1]; [4],0.545
same,IRF Lucia reporter activity,RAW-Dual [1]; agonist: LPS (TLR4) 0.1 ug/mL,0.223
COc1cc(-c2oc3cc(O)cc(O)c3c(=O)c2O)ccc1O (library stock concentration (final ~1000-fold dilution): 10 mM),IRF Lucia reporter activity,RAW-Dual [1]; [4],0.165 ± 0.043
same,IRF Lucia reporter activity,RAW-Dual [1]; agonist: LPS (TLR4) 0.1 ug/mL,0.745 ± 0.063
CN(c1ccccc1CNc1nc(Nc2ccc3c(c2)CC(=O)N3)ncc1C(F)(F)F)S(C)(=O)=O (library stock concentration (final ~1000-fold dilution): 10 mM),IRF Lucia reporter activity,RAW-Dual [3]; [4],0.0122
same,IRF Lucia reporter activity,RAW-Dual [3]; agonist: LPS (TLR4) 0.1 ug/mL,0.0141
S=C(S)N1CCCC1 (library stock concentration (final ~1000-fold dilution): 10 mM),IRF Lucia reporter activity,RAW-Dual [3]; [4],0.392
same,IRF Lucia reporter activity,RAW-Dual [3]; agonist: LPS (TLR4) 0.1 ug/mL,0.791
COc1cc(N2CCN(C)CC2)ccc1Nc1ncc2c(n1)N(C)c1ccccc1C(=O)N2 (library stock concentration (final ~1000-fold dilution): 10 mM),IRF Lucia reporter activity,RAW-Dual [1]; [4],0.443
same,IRF Lucia reporter activity,RAW-Dual [1]; agonist: LPS (TLR4) 0.1 ug/mL,0.772
C[N+]1(C)CCC[C@H]1C(=O)O (library stock concentration (final ~1000-fold dilution): 10 mM),IRF Lucia reporter activity,RAW-Dual [1]; [4],1.01
same,IRF Lucia reporter activity,RAW-Dual [1]; agonist: LPS (TLR4) 0.1 ug/mL,1.13
O=c1oc2c(O)c(O)cc3c(=O)oc4c(O)c(O)cc1c4c23 (library stock concentration (final ~1000-fold dilution): 2 mM),IRF Lucia reporter activity,RAW-Dual [1]; [4],1.02
same,IRF Lucia reporter activity,RAW-Dual [1]; agonist: LPS (TLR4) 0.1 ug/mL,0.908
O=c1oc2c(O)c(O)cc3c(=O)oc4c(O)c(O)cc1c4c23,IRF Lucia reporter activity,RAW-Dual [2]; library stock concentration (final ~1000-fold dilution): 2 mM,1.36
Cc1csc(-c2nc[nH]c2-c2ccc3ncsc3c2)n1.Cl (library stock concentration (final ~1000-fold dilution): 10 mM),IRF Lucia reporter activity,RAW-Dual [1]; [4],0.341
same,IRF Lucia reporter activity,RAW-Dual [1]; agonist: LPS (TLR4) 0.1 ug/mL,0.655
CC(=O)c1cc2c(o1)C(=O)c1ccccc1C2=O (library stock concentration (final ~1000-fold dilution): 10 mM),IRF Lucia reporter activity,RAW-Dual [3]; [4],0.306
same,IRF Lucia reporter activity,RAW-Dual [3]; agonist: LPS (TLR4) 0.1 ug/mL,0.00847
CCN(CC)CC(=O)Nc1c(C)cccc1C (library stock concentration (final ~1000-fold dilution): 10 mM),IRF Lucia reporter activity,RAW-Dual [1]; [4],1.25 and 1.17
same,IRF Lucia reporter activity,RAW-Dual [1]; agonist: LPS (TLR4) 0.1 ug/mL,1.14 and 1.52
CCC(C)(Oc1ccc(C2(c3ccc(OC(C)(CC)C(=O)O)cc3)CCCCC2)cc1)C(=O)O (stereo not drawn),IRF Lucia reporter activity,RAW-Dual [2]; [5],1.26
CCC(C)(Oc1ccc(C2(c3ccc(OC(C)(CC)C(=O)O)cc3)CCCCC2)cc1)C(=O)O (stereo not drawn) (library stock concentration (final ~1000-fold dilution): 10 mM),IRF Lucia reporter activity,RAW-Dual [1]; [4],1.1
same,IRF Lucia reporter activity,RAW-Dual [1]; agonist: LPS (TLR4) 0.1 ug/mL,0.969
CNc1cc(-c2cccc(Cl)c2Cl)nc(N)n1 (library stock concentration (final ~1000-fold dilution): 10 mM),IRF Lucia reporter activity,RAW-Dual [1]; [4],0.702
same,IRF Lucia reporter activity,RAW-Dual [1]; agonist: LPS (TLR4) 0.1 ug/mL,0.735
OCC1NCC(O)C(O)C1O (stereo not drawn) (library stock concentration (final ~1000-fold dilution): 10 mM),IRF Lucia reporter activity,RAW-Dual [1]; [4],1.06
same,IRF Lucia reporter activity,RAW-Dual [1]; agonist: LPS (TLR4) 0.1 ug/mL,1.06
OCC1NCC(O)C(O)C1O (stereo not drawn),IRF Lucia reporter activity,RAW-Dual [2]; [5],1.09
c1nc2c(NC3CCCCC3)nc(Nc3ccc(N4CCOCC4)cc3)nc2[nH]1 (library stock concentration (final ~1000-fold dilution): 10 mM),IRF Lucia reporter activity,RAW-Dual [3]; [4],0.107
same,IRF Lucia reporter activity,RAW-Dual [3]; agonist: LPS (TLR4) 0.1 ug/mL,0.0806
COc1cc2nccc(Oc3ccc(NC(=O)NC4CC4)c(Cl)c3)c2cc1C(N)=O (library stock concentration (final ~1000-fold dilution): 10 mM),IRF Lucia reporter activity,RAW-Dual [1]; [4],0.453
same,IRF Lucia reporter activity,RAW-Dual [1]; agonist: LPS (TLR4) 0.1 ug/mL,0.643
COc1cc2nccc(Oc3ccc(NC(=O)NC4CC4)c(Cl)c3)c2cc1C(N)=O,IRF Lucia reporter activity,RAW-Dual [2]; [5],0.592
CCCOc1ccc(C(=O)OCCN(CC)CC)cc1N.Cl (library stock concentration (final ~1000-fold dilution): 10 mM),IRF Lucia reporter activity,RAW-Dual [1]; [4],1.04
same,IRF Lucia reporter activity,RAW-Dual [1]; agonist: LPS (TLR4) 0.1 ug/mL,0.91
CCCOc1ccc(C(=O)OCCN(CC)CC)cc1N.Cl,IRF Lucia reporter activity,RAW-Dual [2]; [5],0.743
COc1nc(OCc2cccc(-c3ccccc3)c2C)ccc1CNCCNC(C)=O (library stock concentration (final ~1000-fold dilution): 10 mM),IRF Lucia reporter activity,RAW-Dual [3]; [4],0.221
same,IRF Lucia reporter activity,RAW-Dual [3]; agonist: LPS (TLR4) 0.1 ug/mL,0.467
Cc1c(-c2ccccc2)oc2c(C(=O)OCCN3CCCCC3)cccc2c1=O.Cl (library stock concentration (final ~1000-fold dilution): 10 mM water),IRF Lucia reporter activity,RAW-Dual [1]; [4],1.09
same,IRF Lucia reporter activity,RAW-Dual [1]; agonist: LPS (TLR4) 0.1 ug/mL,0.892
Cc1c(-c2ccccc2)oc2c(C(=O)OCCN3CCCCC3)cccc2c1=O.Cl,IRF Lucia reporter activity,RAW-Dual [2]; library stock concentration (final ~1000-fold dilution): 10 mM water,1.29
CN1CCc2c(c3ccccc3n2Cc2ccc(C(=O)NO)cc2)C1 (library stock concentration (final ~1000-fold dilution): 10 mM),IRF Lucia reporter activity,RAW-Dual [1]; [4],0.943
same,IRF Lucia reporter activity,RAW-Dual [1]; agonist: LPS (TLR4) 0.1 ug/mL,1.19
CN(C)C(=O)c1ccc(S(=O)(=O)c2ccc(NC(=O)C(C)(O)C(F)(F)F)c(Cl)c2)cc1 (stereo not drawn) (library stock concentration (final ~1000-fold dilution): 10 mM),IRF Lucia reporter activity,RAW-Dual [1]; [4],1.25
same,IRF Lucia reporter activity,RAW-Dual [1]; agonist: LPS (TLR4) 0.1 ug/mL,1.24
CN(C)C(=O)c1ccc(S(=O)(=O)c2ccc(NC(=O)C(C)(O)C(F)(F)F)c(Cl)c2)cc1 (stereo not drawn),IRF Lucia reporter activity,RAW-Dual [2]; [5],1.27
